{
  "source": "paper PMC9911399",
  "about": "“Two distinct binding modes provide the RNA-binding protein RbFox with extraordinary sequence specificity”",
  "binders": {"B1": {"name": "GGUGGCU (DNA:RNA)", "RNA": "GGGAGACCGGAAUUCAGAUUGUCCGGUGGCUUUAAAUCCCGUCGUAGCCACCA", "DNA 1": "CAATCTGAATTCCGGTCTCCC", "DNA 2": "TGGTGGCTACGACGGGATT"}, "B2": {"name": "CCCUGAA (DNA:RNA)", "RNA": "B1 RNA with G25C, G26C, U27C, G28U, C30A, U31A", "DNA 1": "CAATCTGAATTCCGGTCTCCC", "DNA 2": "TGGTGGCTACGACGGGATT"}, "B3": {"name": "UUUGUAG (DNA:RNA)", "RNA": "B1 RNA with G25U, G26U, G29U, C30A, U31G", "DNA 1": "CAATCTGAATTCCGGTCTCCC", "DNA 2": "TGGTGGCTACGACGGGATT"}, "B4": {"name": "UUCUCUA (DNA:RNA)", "RNA": "GGGAGACCGGAAUUCAGAUUGUCCUUCUCUAUUAAAUCCCGUCGUAGCCACCA", "DNA 1": "CAATCTGAATTCCGGTCTCCC", "DNA 2": "TGGTGGCTACGACGGGATT"}, "B5": {"name": "CUCAAGA (DNA:RNA)", "RNA": "B4 RNA with U25C, U28A, C29A, U30G", "DNA 1": "CAATCTGAATTCCGGTCTCCC", "DNA 2": "TGGTGGCTACGACGGGATT"}, "B6": {"name": "UCACGAC (DNA:RNA)", "RNA": "B1 RNA with G25U, G26C, U27A, G28C, C30A, U31C", "DNA 1": "CAATCTGAATTCCGGTCTCCC", "DNA 2": "TGGTGGCTACGACGGGATT"}, "B7": {"name": "AUCCACU (DNA:RNA)", "RNA": "B1 RNA with G25A, G26U, U27C, G28C, G29A", "DNA 1": "CAATCTGAATTCCGGTCTCCC", "DNA 2": "TGGTGGCTACGACGGGATT"}, "B8": {"name": "UGACUAG (DNA:RNA)", "RNA": "B1 RNA with G25U, U27A, G28C, G29U, C30A, U31G", "DNA 1": "CAATCTGAATTCCGGTCTCCC", "DNA 2": "TGGTGGCTACGACGGGATT"}, "B9": {"name": "CAGGCAU (DNA:RNA)", "RNA": "B1 RNA with G25C, G26A, U27G, G29C, C30A", "DNA 1": "CAATCTGAATTCCGGTCTCCC", "DNA 2": "TGGTGGCTACGACGGGATT"}, "B10": {"name": "UUAUCGG (DNA:RNA)", "RNA": "B4 RNA with C27A, U30G, A31G", "DNA 1": "CAATCTGAATTCCGGTCTCCC", "DNA 2": "TGGTGGCTACGACGGGATT"}, "B11": {"name": "UCACGGG (DNA:RNA)", "RNA": "B1 RNA with G25U, G26C, U27A, G28C, C30G, U31G", "DNA 1": "CAATCTGAATTCCGGTCTCCC", "DNA 2": "TGGTGGCTACGACGGGATT"}, "B12": {"name": "UACUGGG (DNA:RNA)", "RNA": "B4 RNA with U26A, C29G, U30G, A31G", "DNA 1": "CAATCTGAATTCCGGTCTCCC", "DNA 2": "TGGTGGCTACGACGGGATT"}, "B13": {"name": "GAGAGGA (DNA:RNA)", "RNA": "B1 RNA with G26A, U27G, G28A, C30G, U31A", "DNA 1": "CAATCTGAATTCCGGTCTCCC", "DNA 2": "TGGTGGCTACGACGGGATT"}, "B14": {"name": "CCCGUUC (DNA:RNA)", "RNA": "B4 RNA with U25C, U26C, U28G, C29U, A31C", "DNA 1": "CAATCTGAATTCCGGTCTCCC", "DNA 2": "TGGTGGCTACGACGGGATT"}, "B15": {"name": "AGAACGC (DNA:RNA)", "RNA": "B1 RNA with G25A, U27A, G28A, G29C, C30G, U31C", "DNA 1": "CAATCTGAATTCCGGTCTCCC", "DNA 2": "TGGTGGCTACGACGGGATT"}, "B16": {"name": "CCGAACA (DNA:RNA)", "RNA": "B1 RNA with G25C, G26C, U27G, G28A, G29A, U31A", "DNA 1": "CAATCTGAATTCCGGTCTCCC", "DNA 2": "TGGTGGCTACGACGGGATT"}, "B17": {"name": "CUCGGUG (DNA:RNA)", "RNA": "B4 RNA with U25C, U28G, C29G, A31G", "DNA 1": "CAATCTGAATTCCGGTCTCCC", "DNA 2": "TGGTGGCTACGACGGGATT"}, "B18": {"name": "GUUAUGA (DNA:RNA)", "RNA": "B1 RNA with G26U, G28A, G29U, C30G, U31A", "DNA 1": "CAATCTGAATTCCGGTCTCCC", "DNA 2": "TGGTGGCTACGACGGGATT"}, "B19": {"name": "GUAGCCA (DNA:RNA)", "RNA": "B1 RNA with G26U, U27A, G29C, U31A", "DNA 1": "CAATCTGAATTCCGGTCTCCC", "DNA 2": "TGGTGGCTACGACGGGATT"}, "B20": {"name": "AAGGAAC (DNA:RNA)", "RNA": "B1 RNA with G25A, G26A, U27G, G29A, C30A, U31C", "DNA 1": "CAATCTGAATTCCGGTCTCCC", "DNA 2": "TGGTGGCTACGACGGGATT"}, "B21": {"name": "UUCCUUA (DNA:RNA)", "RNA": "B4 RNA with U28C, C29U", "DNA 1": "CAATCTGAATTCCGGTCTCCC", "DNA 2": "TGGTGGCTACGACGGGATT"}, "B22": {"name": "CAUAUAC (DNA:RNA)", "RNA": "B1 RNA with G25C, G26A, G28A, G29U, C30A, U31C", "DNA 1": "CAATCTGAATTCCGGTCTCCC", "DNA 2": "TGGTGGCTACGACGGGATT"}, "B23": {"name": "UGCCAGG (DNA:RNA)", "RNA": "B4 RNA with U26G, U28C, C29A, U30G, A31G", "DNA 1": "CAATCTGAATTCCGGTCTCCC", "DNA 2": "TGGTGGCTACGACGGGATT"}, "B24": {"name": "GGAGAAU (DNA:RNA)", "RNA": "B1 RNA with U27A, G29A, C30A", "DNA 1": "CAATCTGAATTCCGGTCTCCC", "DNA 2": "TGGTGGCTACGACGGGATT"}, "B25": {"name": "CCAUUUG (DNA:RNA)", "RNA": "B4 RNA with U25C, U26C, C27A, C29U, A31G", "DNA 1": "CAATCTGAATTCCGGTCTCCC", "DNA 2": "TGGTGGCTACGACGGGATT"}, "B26": {"name": "ACCUGAG (DNA:RNA)", "RNA": "B4 RNA with U25A, U26C, C29G, U30A, A31G", "DNA 1": "CAATCTGAATTCCGGTCTCCC", "DNA 2": "TGGTGGCTACGACGGGATT"}, "B27": {"name": "UCCCCGU (DNA:RNA)", "RNA": "B4 RNA with U26C, U28C, U30G, A31U", "DNA 1": "CAATCTGAATTCCGGTCTCCC", "DNA 2": "TGGTGGCTACGACGGGATT"}, "B28": {"name": "CGUCACU (DNA:RNA)", "RNA": "B1 RNA with G25C, G28C, G29A", "DNA 1": "CAATCTGAATTCCGGTCTCCC", "DNA 2": "TGGTGGCTACGACGGGATT"}, "B29": {"name": "UGGUAGG (DNA:RNA)", "RNA": "B4 RNA with U26G, C27G, C29A, U30G, A31G", "DNA 1": "CAATCTGAATTCCGGTCTCCC", "DNA 2": "TGGTGGCTACGACGGGATT"}, "B30": {"name": "CAGGGCU (DNA:RNA)", "RNA": "B1 RNA with G25C, G26A, U27G", "DNA 1": "CAATCTGAATTCCGGTCTCCC", "DNA 2": "TGGTGGCTACGACGGGATT"}, "B31": {"name": "CCUCAAA (DNA:RNA)", "RNA": "B1 RNA with G25C, G26C, G28C, G29A, C30A, U31A", "DNA 1": "CAATCTGAATTCCGGTCTCCC", "DNA 2": "TGGTGGCTACGACGGGATT"}},
  "note": "Where a chain is given by its changes, count along the chain named. Some of the results follow.",
  "data": [
    {"target": "T1, RBFOX1 RRM RbFoxmut (Fox-RRM*) (Homo sapiens, UniProt Q9NWB1 109-208, R118D;E147R;N151S;E152T)", "T1 sequence": "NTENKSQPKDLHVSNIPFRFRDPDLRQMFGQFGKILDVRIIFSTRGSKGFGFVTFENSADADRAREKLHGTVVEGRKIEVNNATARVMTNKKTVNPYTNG", "assay": "EMSA; HiTS-Eq, 1 nM pool, 10 min; buffer printed only for the single-RNA assays: 10 mM Tris pH 7.5, 150 mM NaCl, 3.4 mM EDTA, 0.001% NP-40, 30 C", "details": "tags: His6 N-terminal (pET28a); label: 5' 32P", "outline": "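These values rest on relative association constants, computed from read-count changes of each RNA species versus the control reaction and normalised to the cognate motif. Reads came from free RNA recovered by 8% native PAGE after purified RbFox RRM (wild type or mutant) at increasing concentrations was equilibrated for 10 min in 50 µL with 1 nM of a 5′-radiolabelled pool with 7 randomized nucleotides and DNA-annealed flanks.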", "values": [
      {"binder": "B1", "binding signal": "0.113 KA relative to UGCAUGU"},
      {"binder": "B2", "binding signal": "0.0778 KA relative to UGCAUGU"},
      {"binder": "B3", "binding signal": "0.165 KA relative to UGCAUGU"},
      {"binder": "B4", "binding signal": "0.11 KA relative to UGCAUGU"},
      {"binder": "B5", "binding signal": "0.105 KA relative to UGCAUGU"},
      {"binder": "B6", "binding signal": "0.0776 KA relative to UGCAUGU"},
      {"binder": "B7", "binding signal": "0.127 KA relative to UGCAUGU"},
      {"binder": "B8", "binding signal": "0.114 KA relative to UGCAUGU"},
      {"binder": "B9", "binding signal": "0.103 KA relative to UGCAUGU"},
      {"binder": "B10", "binding signal": "0.075 KA relative to UGCAUGU"},
      {"binder": "B11", "binding signal": "0.0758 KA relative to UGCAUGU"},
      {"binder": "B12", "binding signal": "0.0764 KA relative to UGCAUGU"},
      {"binder": "B13", "binding signal": "0.0596 KA relative to UGCAUGU"},
      {"binder": "B14", "binding signal": "0.0759 KA relative to UGCAUGU"},
      {"binder": "B15", "binding signal": "0.0935 KA relative to UGCAUGU"},
      {"binder": "B16", "binding signal": "0.0887 KA relative to UGCAUGU"},
      {"binder": "B17", "binding signal": "0.115 KA relative to UGCAUGU"},
      {"binder": "B18", "binding signal": "0.206 KA relative to UGCAUGU"},
      {"binder": "B19", "binding signal": "0.082 KA relative to UGCAUGU"},
      {"binder": "B20", "binding signal": "0.057 KA relative to UGCAUGU"},
      {"binder": "B21", "binding signal": "0.0974 KA relative to UGCAUGU"},
      {"binder": "B22", "binding signal": "0.105 KA relative to UGCAUGU"},
      {"binder": "B23", "binding signal": "0.0858 KA relative to UGCAUGU"},
      {"binder": "B24", "binding signal": "0.0906 KA relative to UGCAUGU"},
      {"binder": "B25", "binding signal": "0.0952 KA relative to UGCAUGU"},
      {"binder": "B26", "binding signal": "0.0813 KA relative to UGCAUGU"},
      {"binder": "B27", "binding signal": "0.104 KA relative to UGCAUGU"},
      {"binder": "B28", "binding signal": "0.0853 KA relative to UGCAUGU"},
      {"binder": "B29", "binding signal": "0.103 KA relative to UGCAUGU"},
      {"binder": "B30", "binding signal": "0.0959 KA relative to UGCAUGU"},
      {"binder": "B31", "binding signal": "0.0862 KA relative to UGCAUGU"}
    ]}
  ]
}
